Measurements reported in the supplement of paper PMC10723795.
The other results are listed elsewhere or left out.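 Rule for the calls: active = more than 2 SD below the DMSO mean: under 0.85 at 10 µM or 0.885 at 1 µM; inactive = the rest.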 Repeats are few or missing, and single values can be far off.

System: RPE1
Test: nucleolar normality score relative to DMSO (fraction of DMSO control); RPE1 is a non-cancer human cell line; higher = more normal nucleoli (less nucleolar stress)
Conditions: 24 h
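Note: fixed cells immunolabelled for nucleolin and UBF, 40 image fields per well in 384-well plates, per-cell score = nucleolin nucleolar/nucleoplasm intensity ratio divided by the matching UBF ratio.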

| SMILES | nucleolar normality score (1 µM) | nucleolar normality score (10 µM) |
| --- | --- | --- |
| COc1ccc(C2=NC(c3ccc(Cl)cc3)C(c3ccc(Cl)cc3)N2C(=O)N2CCNC(=O)C2)c(OC(C)C)c1 (stereo unspecified) [Nutlin-3b] | inactive: 1.02 | inactive: 1.06 |
| CCN(CC)CCNC(=O)c1c(C)[nH]c(/C=C2\C(=O)Nc3ccc(F)cc32)c1C [Sunitinib] | inactive: 0.95 | inactive: 0.943 |
| Cc1[nH]c2ccccc2c1CCNC(=O)c1cccs1 | inactive: 0.979 | inactive: 1.05 |
| N#Cc1c(O)c2c(-c3ccc(-c4ccccc4O)cc3)csc2[nH]c1=O | inactive: 0.998 | inactive: 0.884 |
| Cc1nc2ccc(-n3ncc(C(=O)c4cc5ccccc5[nH]4)c3N)cc2[nH]1 | inactive: 1.01 | inactive: 1.07 |
| O=c1cc(-c2cccc3c2Sc2ccccc2S3)oc(N2CCOCC2)c1 | inactive: 1.11 | inactive: 1.09 |
| O=C(C=Cc1ccccc1)NC(NC(=S)Nc1ccc(Cl)cc1)C(Cl)(Cl)Cl (stereo unspecified) | inactive: 0.942 | inactive: 1.02 |
| CC(C)(CNC(=O)c1cccc(-c2noc(C(F)(F)F)n2)c1)c1coc(-c2ccccc2)n1 | inactive: 1.05 | inactive: 1.07 |
| Nc1nc(Cl)nc2c1ncn2[C@H]1C[C@H](O)[C@@H](CO)O1 [Cladribine] | inactive: 0.905 | inactive: 1.01 |
| Cc1nc(Nc2cnn(C3CCNCC3)c2)nc2c1N(C)C(=O)c1cc3ccccc3cc1N2C | inactive: 1.01 | inactive: 1.01 |
| CN(N=O)C(=O)NC1C(O)OC(CO)C(O)C1O (stereo unspecified) [Streptozotocin (STZ)] | inactive: 0.988 | inactive: 1.03 |
| COc1ccccc1C(=O)Nc1cc2c(cc1N1CCCC1)n(C)c(=O)n2C | inactive: 0.978 | inactive: 1.04 |
| C[C@]12CCC(=O)C=C1CC[C@@H]1[C@@H]2[C@@H](O)C[C@@]2(C)[C@H]1CC[C@]2(O)C(=O)CO [Hydrocortisone] | inactive: 0.976 | inactive: 1.05 |
| C=CC(=O)Nc1cccc(C)c1Nc1ncc2cc(-c3c(Cl)c(OC)cc(OC)c3Cl)ccc2n1 | inactive: 1.1 | inactive: 1.16 |
| C=C1C(=O)O[C@@H]2/C=C(\C)CC/C=C(\C)CC[C@@H]12 [Costunolide] | active: 0.884 | inactive: 1.03 |
| O=C(Nc1ccccc1)c1cc([N+](=O)[O-])ccc1Cl | inactive: 1.02 | inactive: 0.891 |
| Oc1ccc2c(c1)OCO2 [Sesamol] | inactive: 0.971 | inactive: 0.887 |
| Cn1cnc(-c2cc3nccc(Oc4ccc(NC(=S)NC(=O)Cc5ccccc5)cc4F)c3s2)c1 [Glesatinib?(MGCD265)] | inactive: 1.02 | inactive: 1.06 |
| c1ccc2c(Cc3c[nH]c4ccccc34)c[nH]c2c1 [3,3'-Diindolylmethane] | inactive: 1.1 | inactive: 0.919 |
| CCC(=O)N1CCN(c2ccc(-n3c(=O)ccc4cnc5ccc(-c6cnc7ccccc7c6)cc5c43)cc2C(F)(F)F)CC1 [Torin 1] | inactive: 0.993 | active: 0.578 |
| O=c1cc(N2CCOCC2)oc2c(-c3cccc4c3sc3ccccc34)cccc12 | inactive: 1.01 | active: 0.663 |

| SMILES | nucleolar normality score (1 µM) | nucleolar normality score (10 µM) |
| --- | --- | --- |
| COc1ccc([C@@H]2CC(=O)c3c(O)cc(O[C@@H]4O[C@H](CO[C@@H]5O[C@@H](C)[C@H](O)[C@@H](O)[C@H]5O)[C@@H](O)[C@H](O)[C@H]4O)cc3O2)cc1O [Hesperidin] | inactive: 0.976 | inactive: 0.857 |
| Cc1ccc(-c2csc(NC(=O)c3ccccc3)n2)c(C)c1 | active: 0.881 | inactive: 1.03 |
| CCCCCCCCCCCCCC(=S)NCCCC[C@H](NC(=O)OCc1ccccc1)C(=O)Nc1ccccc1 [Thiomyristoyl] | inactive: 1.03 | inactive: 1.06 |
| Clc1ccc(NN=C(c2ccccc2)c2ccccn2)nc1 | active: 0.552 | active: 0.501 |
| O=C(/C=C/c1ccc2ccccc2n1)c1ccncc1 | inactive: 1.02 | inactive: 1.01 |
| CC(C)N(C[C@H]1O[C@@H](n2cnc3c(N)ncnc32)[C@H](O)[C@@H]1O)[C@H]1C[C@@H](CCc2nc3cc(C(C)(C)C)ccc3[nH]2)C1 [Pinometostat (EPZ5676)] | inactive: 1.06 | inactive: 0.905 |
| Cc1c(C)c2c(c(C)c1O)CCC(C)(COc1ccc(CC3SC(=O)NC3=O)cc1)O2 (stereo unspecified) [Troglitazone (CS-045)] | inactive: 1 | inactive: 0.97 |
| Cc1c(NC(=O)c2cc(C(N)=O)nc3cc(F)ccc23)c(C(F)(F)F)nn1Cc1ccc(C#N)cc1 | inactive: 1 | inactive: 0.932 |
| Cc1ccc(NS(=O)(=O)c2ccc3c(c2)C2C=CCC2C(c2ccc(C(=O)O)cc2)N3)cc1C (stereo unspecified) | inactive: 0.941 | inactive: 1.02 |
| COCCOc1cnc2ccn([C@H](C)c3nnc4c(F)cc(-c5cnn(C)c5)cn34)c(=O)c2c1 | inactive: 0.987 | inactive: 1.03 |
| CCn1c2ccccc2c2cc(Nc3ccnc(NCCCN4CCOCC4)n3)ccc21 | inactive: 1.04 | inactive: 0.978 |
| NC1(C(=O)N[C@@H](CCO)c2ccc(Cl)cc2)CCN(c2ncnc3[nH]ccc23)CC1 | inactive: 0.959 | inactive: 1.01 |
| Cc1oncc1C(=O)Nc1ccc(C(F)(F)F)cc1 [Leflunomide] | inactive: 1.06 | inactive: 1.04 |
| CN(C)/N=N/c1[nH]cnc1C(N)=O [Dacarbazine] | inactive: 1.05 | inactive: 1.1 |
| Cn1cc(-c2ccc3ncc(Cc4ccc5ncccc5c4)n3n2)cn1 | inactive: 0.984 | inactive: 0.88 |
| Cc1cc(C)c(-c2csc(NC(=O)c3ccccc3)n2)c(C)c1 | inactive: 0.95 | inactive: 1.07 |
| Cn1cc(-c2cnn3c(N)c(Br)c([C@@H]4CCCNC4)nc23)cn1 | inactive: 1.01 | active: 0.828 |
| C=CC(=O)Nc1cccc(Nc2nc(Nc3ccc(Oc4ccnc(C(=O)NC)c4)cc3)ncc2F)c1 | inactive: 0.988 | inactive: 1.05 |
| CC(C)c1cc(-c2n[nH]c(=O)n2-c2ccc3c(ccn3C)c2)c(O)cc1O [Ganetespib (STA-9090)] | active: 0.337 | active: 0.295 |
| COc1ccc(-c2ccc3ncc4c(c3c2)n(-c2ccc(N3CCNCC3)c(C(F)(F)F)c2)c(=O)n4C)cn1 | active: 0.499 | active: 0.268 |
| N#CSc1cc(SC#N)c(N)nc1N | inactive: 0.981 | inactive: 0.974 |

| SMILES | nucleolar normality score (1 µM) | nucleolar normality score (10 µM) |
| --- | --- | --- |
| Oc1ccc2ccccc2c1SSc1c(O)ccc2ccccc12 | inactive: 1.05 | inactive: 0.914 |
| CCCCc1nc2cc(/C=C/C(=O)NO)ccc2n1CCN(CC)CC [Pracinostat (SB939)] | inactive: 1.1 | inactive: 0.913 |
| O=C(Nc1cccc2cccnc12)c1ccc(N2C(=O)C3C4C=CC(C4)C3C2=O)cc1 (stereo not drawn) [IWR-1-endo] | inactive: 1.03 | inactive: 0.901 |
| O=C(NO)c1cccc(C(=O)NCCc2ccccc2)c1 | inactive: 1.01 | inactive: 1.04 |
| Cc1[nH]c2ccccc2c1C1=C(NCCc2ccc(F)cc2)C(=O)N(C)C1=O | inactive: 0.978 | inactive: 1.03 |
| CC#CC(=O)N1CCC[C@H]1c1nc(-c2ccc(C(=O)Nc3ccccn3)cc2)c2c(N)nccn12 [Acalabrutinib (ACP-196)] | inactive: 0.942 | inactive: 0.98 |
| CC(C)n1nc(-c2ccc3oc(N)nc3c2)c2c(N)ncnc21 [Sapanisertib (INK 128, MLN0128)] | active: 0.457 | active: 0.429 |
| Nc1nc(NC2CC2)cc(-c2cccc(Cl)c2Cl)n1 | inactive: 0.988 | inactive: 1.03 |
| C[C@]12CC[C@H](O)CC1=CC[C@@H]1[C@@H]2CC[C@]2(C)C(n3cnc4ccccc43)=CC[C@@H]12 [Galeterone] | inactive: 1.02 | inactive: 0.906 |
| CC1=C(/C=C/C(C)=C/C=C/C(C)=C/C(=O)O)C(C)(C)CCC1 [Tretinoin] | inactive: 0.991 | inactive: 0.996 |
| O=C(Nc1nc2cccc(-c3ccc(CN4CCS(=O)(=O)CC4)cc3)n2n1)C1CC1 [Filgotinib (GLPG0634)] | inactive: 0.987 | inactive: 0.966 |
| COc1ccc2ccc(=O)oc2c1CC=C(C)C [Osthole] | inactive: 1.03 | inactive: 0.857 |
| O=C(O)c1ccc(-c2c[nH]c3ncc(-c4ccccc4)cc23)cc1C1CCCC1 | inactive: 1.06 | inactive: 1.01 |
| Cc1cc(Nc2ncc3c(n2)N(C)C(=O)N(c2cc(NC(=O)c4cccc(C(F)(F)F)c4)ccc2C)C3)n(C)n1 [Pluripotin (SC1)] | inactive: 1.06 | active: 0.685 |
| c1ccc(-c2[nH]ncc2-c2ccnc3ccccc23)nc1 | active: 0.818 | inactive: 1.05 |
| CCN(CC)CC(O)CNc1ccc(NCC2CO2)c2c1C(=O)c1ccccc1C2=O (stereo unspecified) | active: 0.386 | active: 0.205 |
| C=CC(=O)Nc1cc(Nc2nccc(-c3c[nH]c4ccccc34)n2)c(OC)cc1N(C)CCN(C)C | inactive: 0.992 | inactive: 1.05 |
| C=CC(=O)Nc1cc(Nc2nccc(-c3cn(C)c4ccccc34)n2)c(OC)cc1N(C)CCN(C)C [Osimertinib (AZD9291)] | inactive: 1.02 | inactive: 1.02 |
| Cc1ccc(NCCCc2ccccc2)c(N)c1 | inactive: 0.986 | inactive: 1.06 |
| C[C@H](NC(=O)/C(C#N)=C/c1cccc(Br)n1)c1ccccc1 | inactive: 1.01 | inactive: 0.87 |
| CCC(CC)n1ccc2c(C(=O)NCc3c(C)cc(C)[nH]c3=O)cc(C#N)cc21 | inactive: 0.99 | inactive: 0.995 |
